The nature of this data set: Solubility of RPL554 salts in saline solutions, water and aqueous buffer solutions at 25° C. (HPLC). Particulars: for Solubility as RPL554 (mg/ml) in buffer solution pH 3.5, Phosphate / Solubility as RPL554 (mg/ml) in buffer solution pH 4.5, Acetate / Solubility as RPL554 (mg/ml) in buffer solution pH 4.5, Citro-phosphate / Solubility as RPL554 (mg/ml) in buffer solution pH 6.5, Phosphate: in saline 0.9% w/w. Format: physicochemical. As for the experimental part: The behaviour of salts of RPL554 were examined under the following conditions: • Phosphate buffered to pH 3.5 in saline, 0.9% w/w at 25° C. • Acetate buffered to pH 4.5 in saline, 0.9% w/w at 25° C. • Citro-Phosphate buffered to pH 4.5 in saline, 0.9% w/w at 25° C. • Phosphate buffered to pH 6.5 in saline, 0.9% w/w at 25° C. • Saline, 0.7, 0.9 and 1.1% w/w at 25° C. • Deionised water at 25° C.
RPL554 salts and RPL554, ca 50 mg, were suspended in the various aqueous media, 1 ml, with agitation at the specified temperatures for 24 hours. The solids were isolated and dried in vacuo at 45° C. The retained filtrates were examined by HPLC.
Additional RPL554 methane sulfonate salt, ca 50 mg, was charged to the water mixtures at 25° C. and 37.5° C. in order to afford a suspension. In all other cases, suspensions were obtained.
The solubility of the RPL554 was determined by HPLC using a single point calibration and is expressed as RPL554 and not as the salt and are detailed in Table 6 and Table 7 for the various conditions utilised.

The results in this text go back to patent US11491155B2, “Salt of a pyrimido[6,1-A]isoquinolin-4-one compound” (VERONA PHARMA PLC, priority 2015, dated 2022).

SMILES strings stand for the structures. Counter-ions that a name gives are not always drawn. This continues a long series; more values of the same kind are listed elsewhere.

For the compound `COc1cc2c(cc1OC)-c1c/c(=N\c3c(C)cc(C)cc3C)n(CCNC(N)=O)c(=O)n1CC2` [Methanesulfonate, RPL554 methanesulfonate], the “Solubility as RPL554 (mg/ml) in buffer solution pH 3.5, Phosphate” value is on record as 1.72 mg/ml; the “Solubility as RPL554 (mg/ml) in buffer solution pH 4.5, Acetate” value (shortened to “Solubility as RPL554 (mg/ml) … Acetate”) is 2.01 mg/ml; the “Solubility as RPL554 (mg/ml) in buffer solution pH 4.5, Citro-phosphate” value (“Solubility as RPL554 (mg/ml) … Citro-phosphate” below) was determined as 3.10 mg/ml; the “Solubility as RPL554 (mg/ml) in buffer solution pH 6.5, Phosphate” value is given as 0.02 mg/ml.
On to `COc1cc2c(cc1OC)-c1c/c(=N\c3c(C)cc(C)cc3C)n(CCNC(N)=O)c(=O)n1CC2` [Hydrobromide, RPL554 hydrobromide], for which, under “hydrobromide”, the “Solubility as RPL554 (mg/ml) in buffer solution pH 3.5, Phosphate” value is given as 0.33 mg/ml; the “Solubility as RPL554 (mg/ml) … Acetate” value worked out at 0.71 mg/ml; the “Solubility as RPL554 (mg/ml) … Citro-phosphate” value came to 0.75 mg/ml.
As for `COc1cc2c(cc1OC)-c1c/c(=N\c3c(C)cc(C)cc3C)n(CCNC(N)=O)c(=O)n1CC2` [RPL554, 9,10-dimethoxy-2-(2,4,6-trimethylphenylimino)-3-(N-carbamoyl-2-aminoethyl)-3,4,6,7-tetrahydro-2H-pyrimido[6,1-a]isoquinolin-4-one], for the setting “listed as None (RPL554)”, the “Solubility as RPL554 (mg/ml) in buffer solution pH 3.5, Phosphate” value is 0.30 mg/ml; the “Solubility as RPL554 (mg/ml) … Acetate” value turned out to be 0.24 mg/ml; the “Solubility as RPL554 (mg/ml) … Citro-phosphate” value is on record as 0.22 mg/ml.
Turning to `COc1cc2c(cc1OC)-c1c/c(=N\c3c(C)cc(C)cc3C)n(CCNC(N)=O)c(=O)n1CC2` [Ethane-1,2-disulfonate, RPL554 ethane-1,2-disulfonate], the “Solubility as RPL554 (mg/ml) in buffer solution pH 3.5, Phosphate” value is on record as 2.66 mg/ml; the “Solubility as RPL554 (mg/ml) … Acetate” value is 1.47 mg/ml; the “Solubility as RPL554 (mg/ml) … Citro-phosphate” value came out at 4.14 mg/ml. Further, where the note is “24 hours”, the “Solubility as RPL554 (mg/ml) in 0.9 w/w % Saline” value is 4.12 mg/mL and the “Solubility as RPL554 (mg/ml) in 1.1 w/w % Saline” value worked out at 1.03 mg/mL. Besides, under “deionised water, 24 hours”, the “Solubility as RPL554 (mg/ml) in Water” value turned out to be 3.69 mg/mL.
For the compound `COc1cc2c(cc1OC)-c1c/c(=N\c3c(C)cc(C)cc3C)n(CCNC(N)=O)c(=O)n1CC2` [Hydrochloride, RPL554 hydrochloride], for the setting “hydrochloride”, the “Solubility as RPL554 (mg/ml) in buffer solution pH 3.5, Phosphate” value was found to be 1.07 mg/ml; the “Solubility as RPL554 (mg/ml) … Acetate” value is 1.38 mg/ml; the “Solubility as RPL554 (mg/ml) … Citro-phosphate” value is recorded as 1.93 mg/ml.
Turning to `COc1cc2c(cc1OC)-c1c/c(=N\c3c(C)cc(C)cc3C)n(CCNC(N)=O)c(=O)n1CC2` [Ethanesulfonate, RPL554 ethanesulfonate], the “Solubility as RPL554 (mg/ml) in buffer solution pH 3.5, Phosphate” value is 1.18 mg/ml; the “Solubility as RPL554 (mg/ml) … Acetate” value is reported as 0.46 mg/ml; the “Solubility as RPL554 (mg/ml) … Citro-phosphate” value amounted to 1.55 mg/ml.
The matching figures for `COc1cc2c(cc1OC)-c1c/c(=N\c3c(C)cc(C)cc3C)n(CCNC(N)=O)c(=O)n1CC2` [Naphthalene-2-sulfonate]: 0.08 mg/ml, 0.41 mg/ml and 0.28 mg/ml.
For `COc1cc2c(cc1OC)-c1c/c(=N\c3c(C)cc(C)cc3C)n(CCNC(N)=O)c(=O)n1CC2` [Sulfate, RPL554 sulfate] the same measures were 1.22 mg/ml, 0.42 mg/ml and 1.75 mg/ml.
Consider `COc1cc2c(cc1OC)-c1c/c(=N\c3c(C)cc(C)cc3C)n(CCNC(N)=O)c(=O)n1CC2` [Phosphate, RPL554 phosphate], for which the “Solubility as RPL554 (mg/ml) in buffer solution pH 3.5, Phosphate” value amounted to 1.84 mg/ml; the “Solubility as RPL554 (mg/ml) … Acetate” value was determined as 1.67 mg/ml; the “Solubility as RPL554 (mg/ml) … Citro-phosphate” value worked out at 3.29 mg/ml; the “Solubility as RPL554 (mg/ml) in buffer solution pH 6.5, Phosphate” value came out at 0.02 mg/ml.
For the compound `COc1cc2c(cc1OC)-c1c/c(=N\c3c(C)cc(C)cc3C)n(CCNC(N)=O)c(=O)n1CC2` [p-Toluenesulfonate, RPL554 p-toluenesulfonate], the “Solubility as RPL554 (mg/ml) in buffer solution pH 3.5, Phosphate” value worked out at 0.18 mg/ml; the “Solubility as RPL554 (mg/ml) … Acetate” value amounted to 0.77 mg/ml; the “Solubility as RPL554 (mg/ml) … Citro-phosphate” value amounted to 0.61 mg/ml.
